Not every entry of the source has a single result; some have several. Only these are listed. There may be further records. The values listed for one entry read as repeated measurements on other runs, samples or individuals.
Target: human mesothelin (recombinant, soluble) (human) (UniProt Q13421)
Assay: SPR BIAcore, captured mAb, mesothelin analyte

Chain of UniProt Q13421 (Q13421 other isoform, or with tags, fused parts or gaps limits assumed): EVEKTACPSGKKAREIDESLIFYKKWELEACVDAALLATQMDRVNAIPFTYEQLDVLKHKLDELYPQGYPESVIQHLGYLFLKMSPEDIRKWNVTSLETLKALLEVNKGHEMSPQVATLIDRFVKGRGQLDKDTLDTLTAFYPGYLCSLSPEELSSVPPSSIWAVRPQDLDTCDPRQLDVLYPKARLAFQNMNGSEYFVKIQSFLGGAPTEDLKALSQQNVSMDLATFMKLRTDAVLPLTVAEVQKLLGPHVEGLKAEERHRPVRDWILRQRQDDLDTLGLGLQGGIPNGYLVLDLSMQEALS

B1: 201C15 (rabbit-human chimeric anti-human mesothelin antibody) (antibody, from another filing, V domains shown)
VH: QSVKESGGRLVTPGTPLTLTCTVSGIDLSSYAMGWFRQAPGKGLEYIGTINIGGRVYYASWAKGRFTISRTSTTVDLKAPSLTAEDTATYFCARYYNGGSYDIWGPGTLVTVSL
VL: DVVMTQTPASASEPVGGTVTIKCQASESIYRVLAWYQQKPGQPPKLLIYDTSTLASGAPSRFKGSGYGTEFTLTISGVQCEDAATYYCQGGYYADSYGIAFGGGTEVVVKR
  kon: 274000 M⁻¹ s⁻¹ and 2.6e+06 M⁻¹ s⁻¹ [lines of one column]

Source: patent US20210238304A1
